Experimental data as given in the supplement of paper PMC3334620.
In all, about 33,000 sequences were measured (“E-score (-0.5 to 0.5)”: median about -0.016, highest 2% from about 0.32 on). Some of the results follow.

The sequences below were run against T1, Stp1 (UniProt B3LFK1) (assay: PBM E-score (8-mer binding enrichment) (E-score (-0.5 to 0.5)); higher = stronger / more preferred TF binding; most listed sequences are background and not binding sites). Details: protein concentration: 200 nM; construct: GST-full length.
T1 sequence: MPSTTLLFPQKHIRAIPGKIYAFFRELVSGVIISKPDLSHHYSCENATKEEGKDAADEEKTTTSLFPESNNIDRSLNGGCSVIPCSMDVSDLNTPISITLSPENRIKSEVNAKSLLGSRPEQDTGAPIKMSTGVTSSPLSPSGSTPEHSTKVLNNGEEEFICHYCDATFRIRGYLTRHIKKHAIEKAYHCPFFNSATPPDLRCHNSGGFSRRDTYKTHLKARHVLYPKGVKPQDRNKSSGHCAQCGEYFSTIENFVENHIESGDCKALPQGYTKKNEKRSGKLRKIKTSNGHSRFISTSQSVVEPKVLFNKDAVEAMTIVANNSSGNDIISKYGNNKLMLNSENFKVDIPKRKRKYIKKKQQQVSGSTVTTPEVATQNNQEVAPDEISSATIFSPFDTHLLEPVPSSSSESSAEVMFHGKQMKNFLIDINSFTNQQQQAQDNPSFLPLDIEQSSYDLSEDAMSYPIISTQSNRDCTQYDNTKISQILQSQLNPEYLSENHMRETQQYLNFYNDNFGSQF
In short: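 Detection of bound protein used fluorescent anti-GST, with scans normalised by masliner. The proteins were GST-tagged yeast transcription factors applied at about 100-200 nM to universal all-10-mer Agilent arrays made double-stranded by primer extension. Each ungapped eight-base word, pooled with its reverse complement, was scored with an E-score from the Universal PBM Analysis Suite.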

| Sequence | PBM E-score |
| --- | --- |
| AGGTCTAA | -0.0298 |
| ACATGCCC | -0.168 |
| ATGAATTG | 0.0321 |
| GCACCCCA | -0.114 |
| GTCAGCGA | -0.158 |
| ACGGGACG | 0.0549 |
| AATCAGGG | -0.289 |
| ATGAGTCA | -0.227 |
| CCCACCAG | -0.209 |
| ATATTCAG | 0.072 |
| AATTATGG | 0.0682 |
| CCAGCCCC | -0.256 |
| TGGTCAAA | 0.124 |
| CGGGTCAA | -0.162 |
| GTGTTGGA | -0.136 |
| CACCTTAA | -0.0294 |
| TACGTAAA | 0.189 |
| CATCGTAC | 0.0709 |
| GTCGACAC | 0.0998 |
| TGTGAACA | 0.0116 |
| AGGCGAAC | 0.145 |
| CTAATAAA | 0.0356 |
| GAGAAGCA | -0.066 |
| GGCTTTGA | 0.167 |

| Sequence | PBM E-score |
| --- | --- |
| CGACCCTC | -0.302 |
| AAGGCGTG | 0.179 |
| AACTAAGG | 0.194 |
| GACGCCCA | 0.0231 |
| ACATCCCA | -0.193 |
| AGGCCAAT | -0.152 |
| CCGTTAGG | 0.0376 |
| AGCTAACA | -0.034 |
| ATCCCTAC | 0.132 |
| GAGAGGGA | -0.297 |
| CAATAGAC | 0.0676 |
| CCGTATTC | 0.246 |
| AGCTGACA | -0.0424 |
| AGCGGCCT | 0.0372 |
| CCTTTGCA | 0.0304 |
| GCTAAGTA | 0.0343 |
| ACAAGGGA | -0.144 |
| AGTTGTAG | 0.0593 |
| GCTGCGCA | -0.185 |
| ACGCTCGA | -0.0886 |
| CCTCCAAA | -0.0913 |
| ACGTCGGC | -0.153 |
| GCGTCACA | 0.0674 |
| AACATAGG | 0.0786 |

| Sequence | PBM E-score |
| --- | --- |
| CACACCGC | 0.00411 |
| TAAACTGA | 0.114 |
| AGTAAGAG | -0.166 |
| AAGTCCGG | -0.205 |
| GATTCTAA | 0.00656 |
| GTCATTGA | -0.122 |
| AAATCGGA | -0.102 |
| ACCTATTC | -0.0399 |
| AAAGGCTA | 0.00059 |
| ACCGCACA | -0.0115 |
| ATAACTGC | 0.0227 |
| AGCAAGTC | -0.0501 |
| ACGGAGCT | 0.087 |
| AAGCCCCA | -0.307 |
| ATTTTCTG | -0.0455 |
| ATCTATCG | -0.0279 |
| AATCAGAG | 0.147 |
| AAAGTCGC | 0.202 |
| GGACTAAA | -0.0733 |
| CGATCGGC | 0.178 |
| CAAGAGAA | -0.0554 |
| ACGACGTC | -0.0957 |
| CGTACTGA | 0.131 |
| GTAACACA | -5e-05 |

| Sequence | PBM E-score |
| --- | --- |
| CGGACTGA | -0.0177 |
| AACAGTAG | -0.0144 |
| CGCCCCTA | 0.0337 |
| GCATCCGA | 0.00637 |
| AGTCGACC | -0.214 |
| GCGAGAAC | -0.0327 |
| TACGGCCA | 0.214 |
| CCAAACGA | -0.00343 |
| CCCGAAGA | -0.219 |
| ATGGGCAG | 0.0407 |
| ACACCCCG | -0.157 |
| GCCTAGGA | -0.0911 |
| CAATTGAG | 0.164 |
| CTGCTTGC | -0.0347 |
| ATCTGTAA | -0.0573 |
| ACTTAGCT | -0.134 |
| ACCTGTCT | -0.147 |
| AACTAACG | 0.0939 |
| ACAGCACA | 0.121 |
| GCCCCGCA | 0.0316 |
| CGGCTTTA | 0.225 |
| CCAGAACC | -0.154 |
